# Assay results from PubChem BioAssay AID1347165 (National Center for Advancing Translational Sciences (NCATS), 2019).
# The campaign covered roughly 220,000 compounds. About 5,700 (2.6%) were called active. Inconclusive means that the source gave no clear call. Such entries were picked first, then a sample of the others. Calls come from the whole dose curve; as a rule, active = well fitted inhibition curve with a large enough effect; inconclusive = small, poorly fitted or top-dose-only effect; inactive = no such curve, though single readings can be large or run the other way. Potencies beside an inconclusive call are fits to weak or partial responses and may not hold up.
# Target: Lysine-specific demethylase 5B (Homo sapiens) (UniProt Q9UGL1)
# Sequence of UniProt Q9UGL1 (Q9UGL1 whole entry, looked up): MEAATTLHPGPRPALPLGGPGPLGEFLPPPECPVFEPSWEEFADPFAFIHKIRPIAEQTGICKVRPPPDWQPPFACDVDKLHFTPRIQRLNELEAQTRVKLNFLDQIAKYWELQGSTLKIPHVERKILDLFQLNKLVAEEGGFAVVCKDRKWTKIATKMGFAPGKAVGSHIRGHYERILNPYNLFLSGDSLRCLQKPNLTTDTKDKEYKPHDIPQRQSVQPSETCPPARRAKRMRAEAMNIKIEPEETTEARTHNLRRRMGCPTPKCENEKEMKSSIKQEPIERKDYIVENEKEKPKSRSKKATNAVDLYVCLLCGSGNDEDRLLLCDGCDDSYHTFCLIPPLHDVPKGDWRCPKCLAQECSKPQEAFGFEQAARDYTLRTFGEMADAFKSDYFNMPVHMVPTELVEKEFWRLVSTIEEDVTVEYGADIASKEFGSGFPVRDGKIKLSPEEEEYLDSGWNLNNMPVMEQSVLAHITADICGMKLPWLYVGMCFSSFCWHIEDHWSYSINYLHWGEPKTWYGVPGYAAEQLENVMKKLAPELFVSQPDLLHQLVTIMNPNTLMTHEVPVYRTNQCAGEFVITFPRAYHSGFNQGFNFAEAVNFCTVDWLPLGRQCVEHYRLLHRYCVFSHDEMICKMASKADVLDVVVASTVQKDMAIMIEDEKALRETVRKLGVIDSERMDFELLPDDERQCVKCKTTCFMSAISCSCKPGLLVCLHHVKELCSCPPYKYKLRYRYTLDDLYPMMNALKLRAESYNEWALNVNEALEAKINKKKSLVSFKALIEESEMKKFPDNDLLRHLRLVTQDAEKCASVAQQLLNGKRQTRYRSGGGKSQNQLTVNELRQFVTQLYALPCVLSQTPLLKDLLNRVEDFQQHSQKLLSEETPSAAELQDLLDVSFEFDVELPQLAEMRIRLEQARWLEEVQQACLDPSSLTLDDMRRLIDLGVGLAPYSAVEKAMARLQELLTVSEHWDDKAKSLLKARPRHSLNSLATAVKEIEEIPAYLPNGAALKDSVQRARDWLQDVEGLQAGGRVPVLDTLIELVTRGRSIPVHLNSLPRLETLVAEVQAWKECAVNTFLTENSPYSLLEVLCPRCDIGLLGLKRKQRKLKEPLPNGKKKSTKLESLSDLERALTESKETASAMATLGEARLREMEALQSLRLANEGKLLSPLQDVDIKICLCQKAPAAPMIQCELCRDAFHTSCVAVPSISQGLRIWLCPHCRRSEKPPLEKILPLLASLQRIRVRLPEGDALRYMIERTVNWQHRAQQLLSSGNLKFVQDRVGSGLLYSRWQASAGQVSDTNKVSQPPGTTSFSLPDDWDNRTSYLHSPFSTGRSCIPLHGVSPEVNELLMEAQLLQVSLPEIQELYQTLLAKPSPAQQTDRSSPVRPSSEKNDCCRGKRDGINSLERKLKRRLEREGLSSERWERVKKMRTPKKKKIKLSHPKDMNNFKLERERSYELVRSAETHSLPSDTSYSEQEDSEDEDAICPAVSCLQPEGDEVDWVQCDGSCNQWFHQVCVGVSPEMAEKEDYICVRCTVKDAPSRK
# Assay: Primary screen for KDM5B Histone Demethylases FDH-coupled qHTS; note: nearly all actives have a fitted effect of over 70% in size
# Conditions: FDH-coupled NADH fluorescence (FDH is formaldehyde dehydrogenase); series mostly up to 57.7 µM
# Procedure, shortened: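 qHTS format, multiple compound concentrations. Buffer 50 mM HEPES pH 7.5/0.01% Tween-20; 200 nM KDM5BΔAP final; 10 min compound preincubation; substrate-mix levels 12.5 µM peptide, 25 µM α-KG, 0.25 mM NAD⁺; 30 min RT; ΔRFU.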
# Potency is the fitted concentration of half-maximal effect; tags give direction and shape of the fitted curve.
row,Structure (SMILES),Potency
1,Cc1cccc(Cn2c(Br)nc3c2c(=O)n(C)c(=O)n3C)c1,inactive
2,CC(CNC(=O)CCCNC(=O)C1CC1)c1ccccc1 (configuration not stated),inactive
3,CCCc1c(C)nc(Nc2nc(C)c3cc(C)ccc3n2)[nH]c1=O,inactive
4,COCCC1(C(=O)O)CCCN(C(=O)CN(C)Cc2ccncc2)C1 (configuration not stated),"inconclusive: 10 µM [inhibitor, full curve, poor fit]"
5,CCCS(=O)(=O)N1CCC(Cc2nc(-c3cccnc3)n[nH]2)C1 (configuration not stated),inactive
6,CC(Sc1nnc(-c2cccs2)n1C1CC1)C(=O)NC(C)(C)C (configuration not stated),inactive
7,CCNS(=O)(=O)c1ccc(NC(=O)CSc2nc(-c3ccco3)cc(C(F)(F)F)n2)cc1,"inconclusive: 20 µM [inhibitor, partial curve, poor fit]"
8,COc1ccc(OC)c(/C=C/C(=O)NC(C)(C)C)c1,"inconclusive: 31.6 µM [inhibitor, partial curve, poor fit]"
9,COc1ncccc1-c1cnc2[nH]cc(CC(=O)NC3CCOCC3)c2c1,"inconclusive: 31.6 µM [inhibitor, partial curve, poor fit]"
10,COc1ccccc1CNC(=O)c1c[nH]c2ccc(S(=O)(=O)Nc3cc(C)cc(C)c3)cc2c1=O,"inconclusive: 31.6 µM [inhibitor, single point]"
11,COCCNc1ncccc1-c1noc([C@@H]2CCCN2C2CCOCC2)n1,active: 39.8 µM
12,C/C=C/Oc1ccc(C(=O)/C(=C\c2ccncc2)c2nc3ccccc3o2)cc1,"inconclusive: 14.1 µM [inhibitor, partial curve, poor fit]"
13,Cc1ccc(C(=O)N2CCC(C(NC(=O)CC(C)C)C(=O)N3CCCCC3)CC2)cc1 (configuration not stated),inactive
14,Cc1ccc(S(=O)(=O)N2CCN(c3ncnc4scc(-c5ccccc5)c34)CC2)cc1,"inconclusive: 15.8 µM [inhibitor, partial curve, poor fit]"
15,O=C(Cc1cccn1-c1ccc(F)cc1)NCc1ccc(N2CCOCC2)cc1,"inconclusive: 28.2 µM [inhibitor, partial curve, poor fit]"
16,Cc1ccc(-n2c3c(cc(C(=O)Nc4ccccc4C(N)=O)c2=O)C(=O)CC(C)(C)C3)cc1,"inconclusive: 1.26 µM [inhibitor, partial curve, poor fit]"
17,CCOc1ccccc1NC(=O)c1c(NC(=O)COc2ccccc2)sc2c1CCCC2,"inconclusive: 39.8 µM [inhibitor, single point]"
18,Cc1ccc2nc(C3CCCN(Cc4cccc(-c5cccnc5)c4)C3)[nH]c(=O)c2c1 (configuration not stated),inactive
19,CCCc1cc(=O)oc2cc(OS(=O)(=O)c3ccccc3F)ccc12,"inconclusive: 31.6 µM [inhibitor, partial curve, poor fit]"
20,COCCNC(=O)N1CCc2nc(N3CCN(C)CC3)sc2C1,"inconclusive: 20 µM [inhibitor, partial curve]"
21,Cc1cc(CNC(=O)c2cc(-c3ccccc3)cc3c2OCCN3C)no1,active: 39.8 µM

row,Structure (SMILES),Potency
1,COc1ccccc1C(=O)Nc1ccc2oc(-c3ccccc3F)nc2c1,"inconclusive: 1.78 µM [inhibitor, partial curve, poor fit]"
2,CCCn1c(=O)[nH]c(=O)c2c1nc(-c1ccc(OC)c(O)c1)n2CCN1CCOCC1,inactive
3,CCOC(=O)c1cnc2cc(-c3ccc(OCC)cc3)nn2c1-c1ccccc1,"inconclusive: 3.16 µM [inhibitor, partial curve, poor fit]"
4,COc1ccccc1NC(=O)Cn1c(SCC(=O)Nc2ccc(F)cc2)nc2ccccc21,"inconclusive: 31.6 µM [inhibitor, single point]"
5,CN1CCc2[nH]cnc2C12CCN(C(=O)c1cc(=O)[nH]c3ccccc13)CC2,active: 20 µM
6,CCOc1ccccc1NC(=O)CCc1ccc(-c2ccc(C)c(C)c2)o1,"inconclusive: 39.8 µM [inhibitor, single point]"
7,Cc1cc(Br)ccc1NC(=O)C[C@H]1NC(=O)c2ccccc2NC1=O,"inconclusive: 31.6 µM [inhibitor, partial curve, poor fit]"
8,CCn1c2ccccc2c2cc(NC(=O)CNC)ccc21,"inconclusive: 10 µM [inhibitor, partial curve, poor fit]"
9,Cc1ccc(COc2ccc3ccccc3c2CNCC(O)c2ccccc2)cc1 (configuration not stated),inactive
10,COc1cccc(-c2nnnn2[C@H]2CO[C@H]3[C@@H]2OC[C@@H]3NC(=O)c2ccc(N(C)C)cc2)c1,inactive
11,COc1ccc2cc(C(=O)N3CCN(Cc4ccccc4)CC3)c(C)nc2c1,"inconclusive: 28.2 µM [inhibitor, partial curve, poor fit]"
12,CNC(=O)c1cccc(-c2cnc3[nH]cc(CC(=O)Nc4cccc(F)c4)c3c2)c1,inactive
13,Cc1cc(C)cc(NC(=O)CCCc2nc(-c3ccco3)no2)c1,inactive
14,CS(=O)(=O)N1CCC(C2CCN(Cc3ccc(C#N)cc3)C2)CC1 (configuration not stated),"inconclusive: 25.1 µM [inhibitor, partial curve, poor fit]"
15,CCc1c(C)c2ccc(OCC(=O)c3ccccc3)cc2oc1=O,"inconclusive: 39.8 µM [inhibitor, single point]"
16,COc1ccc(C(=O)N2CCC3(CC2)C(OC)CN3c2cccc(F)c2)cn1 (configuration not stated),inactive
17,CC(=O)Nc1cccc(-c2ncc3c(n2)OCCN(Cc2ccccc2)C3=O)c1,"inconclusive: 35.5 µM [inhibitor, partial curve, poor fit]"
18,O=C(Cn1ccn2nc(-c3ccc(F)cc3)c(CO)c2c1=O)Nc1cccc(F)c1,"inconclusive: 25.1 µM [inhibitor, single point]"
19,CCCCN1CC(c2nc3ccccc3n2CCCCOc2cccc(C)c2C)CC1=O (configuration not stated),"inconclusive: 28.2 µM [inhibitor, partial curve, poor fit]"
20,CCOc1ccc(CN(CCc2ccc3c(c2)OCO3)Cc2cc(OC)c(OC)cc2OC)cc1,"inconclusive: 3.55 µM [inhibitor, full curve, poor fit]"
21,COc1ccc(C(=O)Nc2ccc(-c3noc([C@@H]4CCCN4CC4CCCCC4)n3)cn2)cc1,active: 31.6 µM
